Measured values: PubChem BioAssay AID686970 (National Center for Advancing Translational Sciences (NCATS), 2013)
Among all 360,000 compounds or so, about 6,000 (1.7%) were called active. The inconclusive results got no clear call from the source; some entries with a clear call stand among them for comparison. Calls follow the shape of the dose curve; as a rule, active = well fitted cell-killing curve with a large enough effect; inconclusive = small, poorly fitted or top-dose-only effect, or effect the other way; inactive = flat fitted curve, though single readings scatter. Potencies of inconclusive entries are left out as doubtful fits.

experiment: qHTS for induction of synthetic lethality in tumor cells producing 2HG: qHTS for the HT-1080-NT fibrosarcoma cell line; details: HT-1080-NT fibrosarcoma viability, CellTiter-Glo ATP luminescence, 48 h; series mostly up to 46.1 µM;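 also: NT is the 2HG producing partner of a matched IDH1 knockdown line; nearly all actives have a fitted effect of over 55% in size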
Summary of the method: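 HT-1080-NT; 750 cells/well; 5% FBS RPMI; 48 h compound, 37 degrees C; CellTiter-Glo luminescence; curve fitting and curve-class assignment.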
Potency is read from the fitted curve at half-maximal effect; tags tell the direction and shape of the fitted curve.

Compound	Potency
S=C(N/N=C/c1ccc(Cl)c(Cl)c1)Nc1ccccc1Cl	active: 14.6 µM
CCOc1ccc(/C=C2\SC(=S)N(C(C(=O)O)c3ccccc3)C2=O)cc1OC (stereo not given)	inconclusive [cytotoxic, single point]
Cc1cccc(/C=C(\c2nc3ccccc3[nH]2)S(=O)(=O)c2ccccc2)c1	active: 9.2 µM
CC(C)(C)OC(=O)CNC(=O)c1[nH]cnc1C(=O)N[C@@H](CCCCNC(=O)OC(C)(C)C)C(=O)OC(C)(C)C	inactive
COc1ccc(OC)c(-c2csc(NC(=O)c3ccc(F)cc3)n2)c1	inconclusive [cytotoxic, single point]
COc1ccc(OC)c(Nc2ncnc3sc(-c4ccccc4)cc23)c1	inactive
CCN(CC)C(=O)C[n+]1cccc(C(N)=O)c1	inactive
CCN=c1scc(-c2ccc3c(c2)NC(=O)CO3)n1N=C1CCCC1	inconclusive [cytotoxic, partial curve, poor fit]
Clc1cccc(CN2CCc3c([nH]c4ccccc34)C2)c1Cl	inactive
Clc1ccc(/C(Cc2nc3ccccc3[nH]2)=N\Nc2ccccc2)cc1	inconclusive [cytotoxic, single point]
C=CCN1C(=O)N/C(=C/c2ccccc2OCC(=O)Nc2ccc(F)cc2)C1=O	inconclusive [cytotoxic, single point]
COc1cc(NC(=O)CN2C(=O)CN(C)C2=O)c(C)cc1[N+](=O)[O-]	inconclusive [cytotoxic, single point]
CCOC(=S)SCC(=O)N1CCc2cc(OC)ccc2C1C1C(=O)CCCC1=O (stereo not given)	inconclusive [cytotoxic, single point]
CCCCNC(=O)C(C)N(CCN(C)C)C(=O)CCCN1C(=O)NC(c2ccc(Cl)cc2)C(C(=O)OCc2ccccc2)=C1C (stereo not given)	inconclusive [cytotoxic, single point]
CC(=O)Nc1nc2ccccc2n1Cc1ccccc1Cl	active: 18.4 µM
CC(C)(C)NC(=O)CSc1nnc(-c2ccccc2)c(-c2ccccc2)n1	inactive
Oc1ccc(/C=N/NC(=S)Nc2cccnc2)c(O)c1	inconclusive [cytotoxic, full curve, poor fit]
COc1ccc(CCNC(=O)c2cc(C)oc2C)cc1	inconclusive [rising, partial curve]
CCn1c(SCC(=O)Nc2ccc(Cl)cc2)nc2nc3c(cc2c1=O)CCCC3	inactive
CCOC(=O)c1[nH]c(C)c(C(=O)Nc2ccccc2F)c1C	inconclusive [cytotoxic, partial curve]
